Measured values as given in the supplement of paper PMC11417369.
± gives the standard deviation of the averaged measurements. The list shows a part of the results.

test system: PfAP2-G AP2 domain (GST-tagged); assay: gcPBM binding intensity (ln(normalized median fluorescence intensity)); higher = stronger DNA binding
How it was run: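 Binding intensity is defined as the maximum Masliner-normalised natural-log median intensity across replicate spots for either probe orientation. It was measured on an Agilent 4 × 180k array of primer-extended double-stranded 36-bp intergenic genomic probes and negative controls, to which GST-tagged P. falciparum DNA-binding domains made in E. coli were applied for 1 h in 1× PBS with 1% milk, 0.2 mg/ml BSA, 0.5% salmon testes DNA and 0.03% Triton X-100. Detection was by Alexa488 anti-GST antibody and scanning at 488 nm.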

Row | Sequence | gcPBM binding intensity (ln)
1 | ATGCATAAATTTTGAAGTACAAAAAAAAAAAATAAA [XGTACX_site7282] | 11.4 ± 0.86
2 | TTTTTTTTTTTTTTGGGTACATAATAATAACAAGTG [XGTACX_site1034] | 11.3 ± 1
3 | TTTTATTTAACTCATAATTTTTTAAAAAACAATTAT [XGTACX_negctrl_site19] | 10 ± 0.24
4 | AAAATATAATATAATGCACACATAAACAAAAAAAAA [CACACA_site8161] | 10.1 ± 0.12
5 | CACATATACTTCTGTGCACACGAATATTTTTCTTCT [CACACA_site1408] | 10.6 ± 0.35
6 | CATGTAATATTAAACACACACTCATATAACTCAATA [CACACA_site4212] | 10.03 ± 0.099
7 | TTTCTTATAGATTTTAATCCTCTATCAAAAAAAGAA [GTGCAC_negctrl_site162] | 9.82 ± 0.26
8 | TTAACATTATATGAAGGTACAGAAAAAAAAAAATTA [XGTACX_site8530] | 10.9 ± 0.64
9 | CTTATTTAAGAGTATGAACACACATCATACACATAT [CACACA_site9205] | 10.3 ± 0.23
10 | TTTTTAATATTCTATGCATGCATCGCATATTTGGTT [TGCATGCA_site1004] | 9.715 ± 0.049
11 | CATACAGTATTATACTGTACCCATACAAAAAAATAT [XGTACX_site6130] | 11.6 ± 0.83
12 | AAATAAAAAAAATTTGCACACCTTCAAAGTAATATA [CACACA_site1583] | 9.985 ± 0.035
13 | TCTTTTCAATTATCCTATATTCTTTTATTTTTAATT [GTGCAC_negctrl_site326] | 9.82 ± 0.16
14 | CATACACCCATACATACACACATACATACACCCATA [CACACA_site5124] | 10.3 ± 0.28
15 | ATAAAGGAATTTTATACACACAACATATAAATATAT [CACACA_site7365] | 9.995 ± 0.064
16 | AGAGAAAAATATTTGGACAAAAATAATATAATATAT [CACACA_negctrl_site656] | 10.3 ± 0.25
17 | ATTCGTATGAGCATAACACACAATATCGATATTTCT [CACACA_site4165] | 10.025 ± 0.007
18 | ATATCTAAATATATTACACACAGATATCTTCCTATA [CACACA_site3701] | 9.84 ± 0.16
19 | AATTAAAATACAAATGTATGCATGTCTCATATAGAA [TGCATGCA_site822] | 9.79 ± 0.085
20 | TTACGAATTACATATTGTACATATGCACAATTTTAA [XGTACX_site6802] | 10.9 ± 0.52
21 | TCCTATAATAACGTCACACATTAAATTTAATAAATT [CACACA_site4506] | 10.3 ± 0.24
22 | AAAAAAAAAAAAAAAACACACATATATCTATAATAT [CACACA_site6665] | 10.2 ± 0.26
23 | TATACAAAATATTTTACACACACATATATATACATA [CACACA_site2616] | 10.01 ± 0.057

Row | Sequence | gcPBM binding intensity (ln)
24 | CATTATTTATTTTAATGTACTTATTTTTAAATTGGT [XGTACX_site8038] | 11.5 ± 0.96
25 | AGTGCATACATGAATTGTACTTTAAAATAAATTCTA [XGTACX_site8156] | 11 ± 0.64
26 | ATAAAACAACAAAGAAAATGAAAAAGTAAAAACATA [CACACA_negctrl_site596] | 9.98
27 | TATTTATAAAAAGATTGTACATTTTTTATTATTGTA [XGTACX_site6016] | 11 ± 0.54
28 | GTTCATTCATTTTAATGTACAAATTTAACTTTTTCT [XGTACX_site680] | 10.7 ± 0.45
29 | TATAAATATAAATACACACACATATAGATTATAGAT [CACACA_site6429] | 10.12 ± 0.092
30 | TCTAATAATATATACACACACATATATATTTATATA [CACACA_site2032] | 9.815 ± 0.064
31 | TGCTACATTCTATGTACACACATATACATATATATA [CACACA_site893] | 11.2 ± 0.83
32 | TATATCTGTAAATGCACACATATGTGGATATACTTA [CACACA_site5013] | 10.1
33 | AGAAATTATAAATACCTACACACTTATCAAAATAAA [CACACA_site2264] | 9.98 ± 0.13
34 | TAAGACATGATATATACACACCTTGTTTTAATTTTC [CACACA_site5282] | 9.915 ± 0.064
35 | GATAAAGTAAAAATATGTACATATATATTTTAAGTT [XGTACX_site6439] | 11.4 ± 0.78
36 | TTCATATTCGATAAAGTGCATTAATTTTATTTATCA | 9.92 ± 0.16
37 | TCCAATTGTTCTAGTGTGCACATAAATAAATCTCAT | 10.7 ± 0.49
38 | AATACTTTTTTCTGTACACACTTGATTTACTATAAT [CACACA_site5544] | 11.6 ± 0.83
39 | ATAAATAAAAAAGAAAGAAAGAAAGAAACAAACAAA [CACACA_negctrl_site1198] | 10.1 ± 0.24
40 | AAGAGTTAAAAAAATACACACATATAGATTTTTTTA [CACACA_site7018] | 9.805 ± 0.049
41 | AAAAATATTAAAAAAGGTACACAGCATATCTCTTTT [XGTACX_site65] | 11.2 ± 0.88
42 | TATTAATGCAAATGTTATATGTGCATACATAAATGT [CACACA_negctrl_site790] | 9.835 ± 0.092
43 | TATTACATACATATCTGTACATATATTAATGCACAA [XGTACX_site3315] | 11.1 ± 0.71
44 | TAAAAAAAAACTCATGCACACAATATTATGAAAAAG [CACACA_site665] | 10.08 ± 0.042
45 | AAATATTATGTACGCACACACATTTTTAATATATAA [CACACA_site3851] | 11.4 ± 0.83
